Test results reported in PubChem BioAssay AID1963576 (National Center for Advancing Translational Sciences (NCATS), 2024).
Out of some 46,000 compounds screened, about 60 (0.1%) were called active. Inconclusive results (about 3%) are left out. Calls follow the shape of the dose curve; as a rule, active = well fitted inhibition curve with a large enough effect; inconclusive = small, poorly fitted or top-dose-only effect; inactive = no such curve, though single readings can be large or run the other way. The list shows a part of the results.

Test: Primary qHTS assay for Inhibitors of ovarian cancer metastasis using an organotypic tumor microenvironment (TME) model. Also: nearly all actives have a fitted effect of over 65% in size.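 As to activity change, negative = inhibition: plate controls were DMSO wells for no effect and tomatine positive control wells for full effect.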
Details: SKOV3ip1-GFP adhesion/invasion on 3D omental model, fluorescence; series mostly up to 45.8 µM; activity change, negative = inhibition: at the top concentration
In short: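 qHTS, 4-pt dose (0.36-46 umol/L); SKOV3ip1-GFP, 1,200 cells/well, no FBS; primary omental fibroblast/mesothelial co-culture 48 h pre-grown; 2 h RT + 16 h 37 C; PBS wash, 4% PFA; GFP count 488/509 nm.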

Activity change, negative = inhibition, inactive:
COc1ccc(-c2cc(C)no2)cc1S(=O)(=O)NCc1ccco1 -8.86%
CCCn1cc(S(=O)(=O)c2ccc(OC)cc2)c(=O)c2cc(F)c(N3CCCC(C)C3)cc21 (stereo unspecified) 30.9%
CC(=O)c1ccc(NC(=O)C2=CC(c3ccc(C)cc3)=NS(=O)(=O)N2C)cc1 -1.23%
Cc1ccc(S(=O)(=O)Cc2nc(-c3ccc(C(=O)NCc4ccccc4C)cc3)oc2C)cc1 -4.85%
CCOc1ccc(-c2nonc2NC(=O)c2oc3ccc(C)cc3c2C)cc1OCC -20.8%
O=C(Nc1cc(-c2ccccc2F)nn1-c1ccccc1)c1ccccc1Br -5.08%
CCCCCOC(=O)CSc1nc2sc3c(c2c(=O)n1-c1ccccc1)CC(C)(CC)OC3 (stereo unspecified) -14.3%
Cc1ccc(C(=O)Nc2nc3nc(-c4ccccc4)cc(=O)n3[nH]2)cc1 6.41%
Cc1cccc(CSc2nc(-c3cccc(C)c3)nc3c2Cc2c(CO)cnc(C)c2O3)c1 3.27%
Cc1ccc(CN2CCCN(Cc3c(C)cc(C)cc3C)S2(=O)=O)cc1 -2.87%
CCCSC1=NC2(CCN(C(=O)NC3CCCCC3)CC2)N=C1c1ccc(Cl)cc1 8.83%
CCOC(=O)c1cc(-c2ccccc2)n(CC(=O)Nc2ccc(CC)cc2)c1C -10.3%
CCCN(CCC)c1nn2c(=O)c(C(=O)NCc3cc(Br)ccc3OC)cnc2s1 9.41%
Cc1ccc(N2CCN(S(=O)(=O)c3c(C)[nH]c(=O)[nH]c3=O)CC2C)cc1 (stereo unspecified) -6.17%
COc1ccc(C)cc1NC(=O)COCc1cc(-c2ccc(F)cc2)on1 2.06%
CC(C)(C)C(=O)OCc1cc(=O)n2nc(C3CC3)sc2n1 0.319%
COc1ccc(OC)c(CCNC(=O)CCn2c(=O)c3cccn3c3ccc(F)cc32)c1 3.25%
COc1cc(NS(=O)(=O)c2ccc(N)cc2)nc(OC)n1 5.62%
Cc1ccc2c(=O)cc(C(=O)Nc3ccc(S(=O)(=O)N4CCCCCC4)cc3)oc2c1 4.2%
O=C(CSc1nc(=O)n(Cc2ccco2)c2c1CCC2)Nc1ccccc1C(F)(F)F 6.76%
CCCCNC(=O)c1ccccc1NC(=O)CN(c1ccccc1)S(=O)(=O)N(C)C 8.27%
CC(C)n1cnc2c(NCCCCCCNC(=O)OC(C)(C)C)nc(NCCO)nc21 -2.37%
Cc1ccc(CN2CCSc3ccc(C(=O)Nc4ccc(C)cc4)cc32)cc1 -12.1%
CCN(Cc1ccccc1)C(=O)Cn1c(=O)n(-c2ccc(Cl)cc2)c(=O)c2c(C)c(C)sc21 -17.7%
CCOC(=O)CNC(c1ccccc1)c1cc(Br)ccc1NC(=O)c1cccc(Cl)c1 (stereo unspecified) 6.21%
CCc1ccc(NC(=O)C2CCCN(S(=O)(=O)c3ccc(F)cc3)C2)cc1 (stereo unspecified) 1.54%
Cc1ccc(Cl)cc1N1CCN(C(=O)c2cc(S(=O)(=O)N3CCCC3)c[nH]2)CC1 -23.5%
CC(=O)N1CCCc2cc(S(=O)(=O)N3CCC(C(=O)NCc4ccccc4)CC3)ccc21 6.16%
CCc1nnc(SCC(=O)N(CC)c2ccccc2)c2cc3oc(C)cc3n12 1.16%
COc1ccc(CC(=O)NCC(c2ccc(Cl)cc2)N2CCOCC2)cc1 (stereo unspecified) 5.02%
Cc1ccc(C)c(Cn2c(=O)n(-c3ccc(Cl)cc3)c(=O)c3c(C)c(C)sc32)c1 2.19%
Cc1ccc(Cn2c(=O)n(Cc3ccco3)c(=O)c3oc4ccccc4c32)cc1 -11.8%
Cc1ccc(S(=O)(=O)c2nnn3c2nc(NC2CCCCC2)c2sccc23)cc1 4.3%
Cc1ccccc1OCc1nc2ccccc2n1Cc1ccccc1Cl 0.778%
COc1ccc(C2=NS(=O)(=O)N(C)C(C(=O)N(C)Cc3ccccc3)=C2)cc1OC -5.86%
CC(C)CCn1c(Oc2ccccc2F)nc2c1c(=O)n(C)c(=O)n2C 1.8%
CCCCN(CC)C(=O)CCNS(=O)(=O)c1ccc2c(c1)c(=O)n(C)c(=O)n2C 7.69%
Cc1cccc(Nc2ccncc2S(=O)(=O)NC(=O)NC(C)C)c1 -7.33%
CC(=O)c1ccc(NC(=O)CSc2cn(CC(=O)N(C(C)C)C(C)C)c3ccccc23)cc1 -9.61%
COC(=O)c1ccc(C(=O)OC)c(NC(=O)c2cc3nc(-c4ccc(C)cc4)cc(C(F)(F)F)n3n2)c1 1.21%
COc1ccc(C(=O)NCc2ccc3c(c2)CCN3C(=O)c2ccccc2)cc1 5.63%
CCCNC(=O)CCCN1C(=O)CCn2nc(-c3cccn3C)cc21 0.329%
CCc1ccc2oc(-c3ccc(NC(=O)c4cc5ccccc5o4)cc3)nc2c1 4.68%
COCCCNC(=O)c1sc2nc(C)c(C(=O)Nc3ccc(C)cc3C)c(-c3ccccc3Cl)c2c1N 13.7%
CCc1cc(=O)oc2c(C)c3c(cc12)CN(CCc1ccccc1OC)CO3 4.31%
COCCNC(=O)c1nn(-c2ccc(C)cc2)c(=O)n(C)c1=O 1.89%
Cc1cc(C)cc(Nc2cc(C(=O)NCCCN(C)C3CCCCC3)c3ccccc3n2)c1 -23.2%
CC(=O)N[C@H]1[C@@H]([C@H](O)[C@H](O)CO)OC(C(=O)O)=C[C@@H]1N=C(N)N -8.39%
CC1CCN(S(=O)(=O)c2ccc3nc(NCc4ccccc4)ccc3c2)CC1 -7.26%
COCCNC(=O)CCc1c(C)n(C)c2cc(-c3cc(OC)c(OC)c(OC)c3)nn2c1=O 17.9%
COc1ccc(C(CNC(=O)c2oc3cc(C)c(Cl)cc3c2C)N2CCCCC2)cc1 (stereo unspecified) 4.99%
COc1cccc(Nc2nc3ccccc3c3nncn23)c1 -7.17%
COC(=O)c1scc(-c2ccc(C)cc2)c1S(=O)(=O)N1CCN(c2ccc(C)cc2C)CC1 2.19%
O=C(Cn1nc(-c2ccc(Cl)cc2)c2ccccc2c1=O)Nc1cccc(C(F)(F)F)c1 -2.43%
Cn1c(=O)c(=O)n(C)c2cc(C(=O)NCc3ccccc3Cl)ccc21 -5.03%
O=C(NCc1ccccc1Cl)c1c2c(nc3ccccc13)C(=O)N(C1CCCCC1)C2 1.84%
CCN(Cc1ccccc1)Cc1c(O)ccc2c(=O)c(-c3ccc(Cl)cc3)c(C(F)(F)F)oc12 1.69%
Cc1cc2c(cc1NC(=O)c1ccccc1Cl)n(C)c(=O)c(=O)n2C -5.96%
COc1ccc(OC)c(C(=O)CSc2ncc3c(n2)-c2ccccc2N(Cc2ccccc2C)S3(=O)=O)c1 6.44%
Cc1ccn2c(=O)cc(CSc3nnc(C)s3)nc2c1 14.3%
Cc1ccn2cc(CNC(=O)c3cccc(C(F)(F)F)c3)nc2c1 -12.3%
Cc1cccc(-c2noc(-c3ccccc3OCC(=O)Nc3ccccc3[N+](=O)[O-])n2)c1 3.55%
Cc1ccc2nc(-c3ccsc3)c(Nc3ccc(Cl)cc3)n2c1 7.95%
COc1ccc(-c2nnc(SCC(=O)N3CCc4ccccc43)o2)cc1OC 4.53%
CCN(CC)CCCNC(=O)c1cn(CC(C)C)c(=O)c2c1c1ccccc1n2C -7.18%
COc1ccc(OCC(=O)N(Cc2sccc2C)C2CCS(=O)(=O)C2)cc1 (stereo unspecified) 4.05%
CCOC(=O)c1ccc(NC(=O)C(C)Sc2nc(=O)cc(N)n2CCc2ccccc2)cc1 (stereo unspecified) 1.31%
COc1ccc(C(=O)CCC(=O)Nc2ccc(F)cc2F)cc1 0.673%
COc1ccc(F)cc1S(=O)(=O)Nc1ccc2c(c1)CCCN2C(=O)c1cccs1 6.35%
CCn1c2c(c(=O)n3ncc(C(=O)N4CCN(c5ccc(C(C)=O)cc5)CC4)c13)CN(Cc1ccc(OC)cc1)CC2 -5.32%
Cc1ccc(C)c(N2C(=O)N(Cc3cccc(C(F)(F)F)c3)c3ccccc3S2(=O)=O)c1 22.3%

outcome, inactive:
CCN(CC)S(=O)(=O)c1ccc2c(c1)c(=O)c(C(=O)NCc1ccccc1Cl)cn2C
COc1ccc(Cn2ccn(Cc3cccc(Cl)c3)c(=O)c2=O)cc1
O=C(COc1ccccc1F)Nc1c(C(=O)Nc2cccc(F)c2)oc2ccccc12
O=C(CSc1nc2c(oc3ccccc32)c(=O)n1Cc1ccco1)Nc1ccccc1
Cc1ccc(CNC(=O)CCS(=O)(=O)c2cc3c(cc2C)NC(=O)CO3)cc1
COc1cc(Cl)c(C)cc1NC(=O)Cn1cc(S(=O)(=O)N2CCC(C)CC2)c2ccccc2c1=O
Cc1nn(Cc2noc(C(=O)NC(C)c3ccccc3)n2)c(C)c1Br (stereo unspecified)
Cc1cccc(S(=O)(=O)c2cn(C)c3cc(N4CCN(c5ccc(F)cc5)CC4)c(F)cc3c2=O)c1
CC(C)c1ccc(NC(=O)CSC2=Nc3ccccc3C3=NC(CCC(=O)NCc4ccco4)C(=O)N23)cc1 (stereo unspecified)
Cc1ccc(C)c(NC(=O)CSc2nc3c([nH]c4ccccc43)c(=O)n2-c2ccc(F)cc2)c1
CCOc1ccc(OCC)c(NC(=O)c2cnc(SC)nc2-c2ccccc2)c1
Cc1ccc(C)c(Oc2nc3c(c(=O)n(C)c(=O)n3C)n2Cc2ccccc2)c1
Cc1ccc(Cc2cn3cc(-c4ccccc4)nc3s2)cc1
CN(C)S(=O)(=O)c1ccc2c(c1)nnn2CCNC(=O)Nc1ccc(Cl)cc1
CCS(=O)(=O)N1CCc2cc(C(=O)Nc3cccc(C(C)=O)c3)ccc21
CCCNC(=O)C1Cc2cc(S(=O)(=O)N3CCCCCC3)ccc2N1C(C)=O (stereo unspecified)
CCCNC(=O)Cn1c(=O)c2cccn2c2cccnc21
O=C(CCSCc1cnn(-c2ccccc2)c1-n1cccc1)NCc1ccccc1Cl
Cc1ccc(Cl)cc1N1CCN(C(=O)c2ccc(CS(=O)c3ccccc3)o2)CC1 (stereo unspecified)
COc1ccc(NS(=O)(=O)c2ccc(-c3cnc(C4CC4)o3)cc2)cc1Cl
Cn1c(SCc2cc(=O)c3cc(Cl)ccc3[nH]2)nnc1-c1ccccc1
CCN(CC)c1ccc(C2C(C(=O)Nc3ccccc3C)=C(C)Nc3ncnn32)cc1 (stereo unspecified)
COC(=O)CCCCCn1c(-c2ccccc2)cn2c3c(=O)n(C)c(=O)n(C)c3nc12
CCCCC(=O)Nc1ccc(OCc2cc(=O)n3c(C)csc3n2)cc1
Cc1cccc(CCn2c(=O)c3ccccc3n(CC(=O)Nc3ccccc3F)c2=O)c1
